In publication PMC9911399, “Two distinct binding modes provide the RNA-binding protein RbFox with extraordinary sequence specificity” one finds binding signal data, which are given here for 20 molecules.

Changes are numbered by the printed parent chain; changes in the protein carry UniProt numbers. The list shows a part of the results.

T1: RBFOX1 RRM RbFoxmut (Fox-RRM*) (Homo sapiens, UniProt Q9NWB1 109-208, R118D;E147R;N151S;E152T)
T1 sequence: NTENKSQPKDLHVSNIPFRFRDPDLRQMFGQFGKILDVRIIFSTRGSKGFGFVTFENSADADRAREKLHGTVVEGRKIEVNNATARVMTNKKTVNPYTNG

B1: GGAUCGG (DNA:RNA)
RNA: GGGAGACCGGAAUUCAGAUUGUCCGGAUCGGUUAAAUCCCGUCGUAGCCACCA
DNA 1: CAATCTGAATTCCGGTCTCCC
DNA 2: TGGTGGCTACGACGGGATT
B2: GUGACGC (DNA:RNA)
RNA: B1 RNA with G26U, A27G, U28A, G31C
DNA 1: CAATCTGAATTCCGGTCTCCC
DNA 2: TGGTGGCTACGACGGGATT
B3: CGUGGGG (DNA:RNA)
RNA: B1 RNA with G25C, A27U, U28G, C29G
DNA 1: CAATCTGAATTCCGGTCTCCC
DNA 2: TGGTGGCTACGACGGGATT
B4: AUAGACG (DNA:RNA)
RNA: B1 RNA with G25A, G26U, U28G, C29A, G30C
DNA 1: CAATCTGAATTCCGGTCTCCC
DNA 2: TGGTGGCTACGACGGGATT
B5: CUGCUAA (DNA:RNA)
RNA: GGGAGACCGGAAUUCAGAUUGUCCCUGCUAAUUAAAUCCCGUCGUAGCCACCA
DNA 1: CAATCTGAATTCCGGTCTCCC
DNA 2: TGGTGGCTACGACGGGATT
B6: CCCAGGG (DNA:RNA)
RNA: B1 RNA with G25C, G26C, A27C, U28A, C29G
DNA 1: CAATCTGAATTCCGGTCTCCC
DNA 2: TGGTGGCTACGACGGGATT
B7: UCACUGA (DNA:RNA)
RNA: B5 RNA with C25U, U26C, G27A, A30G
DNA 1: CAATCTGAATTCCGGTCTCCC
DNA 2: TGGTGGCTACGACGGGATT
B8: CUCCCAA (DNA:RNA)
RNA: B5 RNA with G27C, U29C
DNA 1: CAATCTGAATTCCGGTCTCCC
DNA 2: TGGTGGCTACGACGGGATT
B9: GGAAAAU (DNA:RNA)
RNA: B1 RNA with U28A, C29A, G30A, G31U
DNA 1: CAATCTGAATTCCGGTCTCCC
DNA 2: TGGTGGCTACGACGGGATT
B10: AGCAUAA (DNA:RNA)
RNA: B5 RNA with C25A, U26G, G27C, C28A
DNA 1: CAATCTGAATTCCGGTCTCCC
DNA 2: TGGTGGCTACGACGGGATT
B11: GAUCGGA (DNA:RNA)
RNA: B5 RNA with C25G, U26A, G27U, U29G, A30G
DNA 1: CAATCTGAATTCCGGTCTCCC
DNA 2: TGGTGGCTACGACGGGATT
B12: UUUCAAC (DNA:RNA)
RNA: B5 RNA with C25U, G27U, U29A, A31C
DNA 1: CAATCTGAATTCCGGTCTCCC
DNA 2: TGGTGGCTACGACGGGATT
B13: AGAUUGU (DNA:RNA)
RNA: B1 RNA with G25A, C29U, G31U
DNA 1: CAATCTGAATTCCGGTCTCCC
DNA 2: TGGTGGCTACGACGGGATT
B14: CUACCGU (DNA:RNA)
RNA: B5 RNA with G27A, U29C, A30G, A31U
DNA 1: CAATCTGAATTCCGGTCTCCC
DNA 2: TGGTGGCTACGACGGGATT
B15: AAUGUAA (DNA:RNA)
RNA: B5 RNA with C25A, U26A, G27U, C28G
DNA 1: CAATCTGAATTCCGGTCTCCC
DNA 2: TGGTGGCTACGACGGGATT
B16: CAGAAAA (DNA:RNA)
RNA: B5 RNA with U26A, C28A, U29A
DNA 1: CAATCTGAATTCCGGTCTCCC
DNA 2: TGGTGGCTACGACGGGATT
B17: GUGAUUG (DNA:RNA)
RNA: B5 RNA with C25G, C28A, A30U, A31G
DNA 1: CAATCTGAATTCCGGTCTCCC
DNA 2: TGGTGGCTACGACGGGATT
B18: ACAUUCU (DNA:RNA)
RNA: B1 RNA with G25A, G26C, C29U, G30C, G31U
DNA 1: CAATCTGAATTCCGGTCTCCC
DNA 2: TGGTGGCTACGACGGGATT
B19: CUUGCAA (DNA:RNA)
RNA: B5 RNA with G27U, C28G, U29C
DNA 1: CAATCTGAATTCCGGTCTCCC
DNA 2: TGGTGGCTACGACGGGATT
B20: GUAUAUA (DNA:RNA)
RNA: B1 RNA with G26U, C29A, G30U, G31A
DNA 1: CAATCTGAATTCCGGTCTCCC
DNA 2: TGGTGGCTACGACGGGATT

For the assay, the target named is T1, RBFOX1 RRM RbFoxmut (Fox-RRM*). The assay is described as follows: EMSA; HiTS-Eq, 1 nM pool, 10 min; buffer printed only for the single-RNA assays: 10 mM Tris pH 7.5, 150 mM NaCl, 3.4 mM EDTA, 0.001% NP-40, 30 C. The settings on record: tags: His6 N-terminal (pET28a); label: 5' 32P. In short, it runs like this: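 A pool of RNA with 7 randomized nucleotides, 5′-radiolabelled and with DNA-annealed flanks, was equilibrated at 1 nM for 10 min in 50 µL with purified RbFox RRM, wild type or mutant, across increasing protein concentrations. Free RNA was separated by 8% native PAGE, excised, reverse-transcribed, barcoded by PCR and sequenced. Relative association constants were obtained from read-count changes of each RNA species versus the control reaction and normalised to the cognate motif.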
(In general: In EMSA bound probe runs differently from free probe, usually more slowly.)
With B1, the binding signal is 0.176 KA relative to UGCAUGU.
For B2, the binding signal was 0.0907 KA relative to UGCAUGU.
For the molecule B3, the binding signal was 0.108 KA relative to UGCAUGU.
Take B4: the binding signal is 0.105 KA relative to UGCAUGU.
As to B5, the binding signal was 0.094 KA relative to UGCAUGU.
For B6, the binding signal is 0.0633 KA relative to UGCAUGU.
B7: the binding signal was 0.092 KA relative to UGCAUGU.
In the case of B8, the binding signal was 0.0806 KA relative to UGCAUGU.
The figure for B9 is 0.0664 KA relative to UGCAUGU; for B10 it is 0.0973 KA relative to UGCAUGU; for B11 it is 0.0751 KA relative to UGCAUGU.
With B12, the binding signal is 0.077 KA relative to UGCAUGU.
In the case of B13, the binding signal is 0.222 KA relative to UGCAUGU.
The figure for B14 is 0.1 KA relative to UGCAUGU; for B15 it is 0.112 KA relative to UGCAUGU; for B16 it is 0.0971 KA relative to UGCAUGU.
Turning to B17, the binding signal was 0.454 KA relative to UGCAUGU.
The figure for B18 is 0.0626 KA relative to UGCAUGU.
As for B19, the binding signal was 0.0832 KA relative to UGCAUGU.
Turning to B20, the binding signal is 0.165 KA relative to UGCAUGU.
